The source of these data is PubChem BioAssay (NCI).

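Five concentrations, 48 hours, 96-well plates. GI50 marks 50% less growth. At the TGI there is no net growth.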 Bounds are passed on as bounds.

For this assay, the system named is NCI-H322M lung. The assay can be described thus: growth of human tumour cells (NCI), 48 h.

As to `O=C(NNc1nc2cc(F)ccc2n2c(CN3CCOCC3)ccc12)c1ccccc1`, the GI50 is 0.276 µM and the TGI stood at 2.62 µM.

Consider `CC1(C)CCC(S(=O)(=O)c2ccc3c(c2)/C(=N\O)c2cc(S(=O)(=O)N4CCC(O)(c5cccc(C(F)(F)F)c5)CC4)ccc2-3)CC1`, for which the GI50 was 0.0787 µM and the TGI came to 0.865 µM.

The molecule `On1c(-c2ccccc2)c(-c2c(-c3ccccc3)n(O)c3ccccc23)c2ccccc21` came in with a TGI above 100 µM.

`c1ccc2[nH]c(-c3nc4ccccc4o3)nc2c1` yielded a TGI above 100 µM.

The molecule `C[N+]1(C)CC=C(N2CCOCC2)CC1` showed a TGI above 10 µM.

With `Brc1c[n+](Cc2ccc3ccccc3c2)cn1Cc1ccc2ccccc2c1`, the GI50 is 2.31 µM and the TGI was 7.93 µM.

Consider `COC(=O)c1cnc2nc(N3CCOCC3)[nH]n2c1=O`, for which the TGI was above 100 µM.

On to `O=C1C=C(SCCO)C(=O)c2ccccc21`, for which the GI50 is 1.75 µM and the TGI stood at 3.2 µM.

Consider `CC(=O)O[C@]1(C(C)=O)CC[C@H]2[C@@H]3C[C@H](C)C4=CC(=O)C=C[C@]4(C)[C@@]3(F)[C@@H](O)C[C@@]21C`, for which the TGI was above 100 µM.

Molecule `CN(C)c1c(Cl)c(=O)oc2c1ccc1nc(-c3ccccc3)sc12` gave a TGI above 100 µM.

With `CC1OCC2OC(C)OC(C3C4=C(CC(C)(C)CC4=O)OC4=C3C(=O)CC(C)(C)C4)C2O1` (configuration not stated), the TGI was above 100 µM.

The molecule `CCOc1ncn(-c2ccc(NC(=S)Nc3cccc(O)c3)cc2)n1` gave a TGI above 100 µM.

For `Cn1ncc2c(Nc3ccc(Br)cc3)nc(Nc3ccc(Br)cc3)nc21`, the GI50 was 3.93 µM and the TGI is 17.8 µM.

In the case of `COc1cc2c(cc1OC)C1c3ccccc3C(C#N)(C2)N(C(=O)c2ccccc2)C1O` (configuration not stated), the TGI is above 100 µM.

Turning to `O=S(=O)(O)c1cc(Cl)c(O)c2ncc(Cl)cc12`, the TGI is above 100 µM.

In the case of `O=C(Cc1ccc(Cl)c(Cl)c1)NCCCN1CCN(CCCN2CCCCC2)CC1`, the TGI was determined as 32.8 µM.

On to `CN(CCNC(=O)c1[nH]nc2c1ccc1ccccc12)CCNC(=O)c1[nH]nc2c1ccc1ccccc12`, for which the TGI was determined as 5.86 µM.

In the case of `COc1ccc2nc3ccc(OC)cc3c(S(=O)Cc3ccc([N+](=O)[O-])cc3)c2c1` (configuration not stated), the TGI stood at 33.5 µM.

Regarding `O=C1Nc2ccc(Cl)cc2/C1=C\c1c(-c2ccc(F)cc2)nc2ccccn12`, the GI50 was 3.69 µM and the TGI came out at 19.6 µM.

In turn, `CC12CC3c4ccccc4CN1C3(c1ccccc1)OC2=O` (configuration not stated) came in with a TGI above 100 µM.

The molecule `COc1ccc(NC(=S)NN=C(C)c2cccc(C(C)=NNC(=S)Nc3ccc(OC)cc3)n2)cc1` displayed a TGI of 37.8 µM.

Molecule `CCCCOC1CC2(c3ccc(OC)cc3)C(=O)c3ccccc3N2O1` (configuration not stated) showed a TGI above 100 µM.

In turn, `Nc1cc2c(cc1[N+](=O)[O-])[nH]c1c(-c3ccccc3)nccc12` came in with a TGI above 67.8 µM.

In turn, `Cc1c(C)c(C)c(-n2c(=O)n(C)c(=O)n2C(C)(C)C)c(C)c1C` showed a TGI above 100 µM.

For `CN(C(=O)C1CCCCC1)c1ccccc1I(=O)=O`, the GI50 was above 100 µM and the TGI is above 100 µM.

The molecule `Nc1nc2ncn(CCO)c2c(=O)[nH]1` registered a TGI above 100 µM.

`O=C(CCN1CCCCC1CCO)Nc1ccc2c(c1)C(=O)c1ccc(NC(=O)CCN3CCCCC3CCO)cc1C2=O` (configuration not stated) yielded a TGI of 15.3 µM.

In the case of `C=C(NC(=O)C(=C)NC(=O)c1csc(C2=NC3c4csc(n4)C4NC(=O)c5csc(n5)C(C(C)(O)C(C)O)NC(=O)C5CSC(=N5)/C(=C/C)NC(=O)C(C(C)O)NC(=O)c5csc(n5)C3(CC2)NC(=O)C(C)NC(=O)C(=C)NC(=O)C(=C)NC(=O)C(C(C)C)NC2C=Cc3c(C(C)O)cc(nc3C2O)C(=O)OC4C)n1)C(N)=O` (configuration not stated), the TGI was above 100 µM.

In turn, `CC1=CC[C@@H]2[C@@H](CC[C@@]2(C)O)C(C)(C)[C@H]1CC[C@@H]1[C@@]2(C)CCC(=O)C(C)(C)O[C@@H]2CC[C@]1(C)O` gave a TGI above 100 µM.

With `N/C(CC/C(N)=N\O)=N\O`, the TGI is above 100 µM.

On to `COCCNCC(O)Cn1c2ccc(Cl)cc2c2cc(Cl)ccc21` (configuration not stated), for which the GI50 is 2.47 µM and the TGI was determined as 6.54 µM.

As to `Oc1c(Cl)c2nccnc2c2ccccc12`, the TGI is above 100 µM.

`N#Cc1[nH]c(=O)n(-c2ccc([N+](=O)[O-])cc2)c1N` displayed a TGI above 10 µM.

For the molecule `O=[N+]([O-])c1ccccc1S(=O)c1ccccc1` (configuration not stated), the TGI was above 100 µM.

As to `COC1=CC(c2ccc[nH]2)=N/C1=C\c1[nH]c(C)c(C(=O)CCC(=O)Oc2ccc3c(c2)CCC2C3CC[C@]3(C)C(=O)CC[C@@H]23)c1C` (some centres not stated), the GI50 is 31.7 µM and the TGI was above 100 µM.

`COc1ccc(-c2cc(C(=O)Nc3cccc(C(F)(F)F)c3)[nH]c(=S)n2)cc1` showed a TGI above 100 µM.

For the molecule `Cc1c(Cl)ccc2c1NC(=O)C2(O)CC(=O)c1ccc(Cl)cc1Cl` (configuration not stated), the TGI is above 50 µM.

With `N#C/C(=C\c1ccc(CP(=O)(O)O)cc1)C(N)=O`, the TGI was above 100 µM.

Molecule `COc1cc2c(cc1OC)C13CCN4CC5=CCOC(CC(=O)O)C(C5CC41)C3N2` (configuration not stated) returned a TGI above 100 µM.

On to `Cc1c2c(n3c(nc4ccccc43)c1C#N)N(c1ccc(Cl)cc1)CC2`, for which the TGI was above 100 µM.

As to `CCOC(=O)c1ccc(NC2Oc3cc4c(cc3C(c3cc(OC)c(OC)c(OC)c3)C2C)OCO4)cc1` (configuration not stated), the TGI is above 100 µM.

Take `Cn1ncc2cc(-c3cnc(N)c(Cl)c3N3CCC4(CCNC4=O)CC3)ccc21`: the GI50 was 73.6 µM and the TGI is above 100 µM.

Take `CN(C)CCC1(C2=CCCC2)CC/C(=C\c2ccc3c(c2)OCO3)C1=O` (configuration not stated): the TGI worked out at 29.6 µM.

For the molecule `COc1cc2c(cc1OC)C(=O)N(c1ccc(O)cc1)C2`, the TGI was above 100 µM.

As to `N=C(N)/N=C(/C=C/c1ccccc1)CC1OC(=O)c2ccccc21` (configuration not stated), the TGI is above 100 µM.

For `COc1ccc(C[C@@H]2CN(C(=O)c3ccccc3)[C@H](Cc3ccc(O)cc3)CN2C(=O)c2ccccc2)cc1Br`, the TGI is above 100 µM.

On to `COc1ccc(C2C3=C(NC(=O)C2C#N)c2ccc4ccccc4c2OCC3)cc1` (configuration not stated), for which the GI50 is 34.9 µM and the TGI was above 100 µM.

`O=c1/c(=C/c2cccc3ccccc23)sc2nc3ccccc3n12` returned a TGI above 100 µM.

`NC1=CN(CCCO)C2=N/C(=C\c3ccco3)C(=O)N12` came in with a TGI above 100 µM.

`[N-]=N[N+]#I1OC(C(F)(F)F)(C(F)(F)F)c2ccccc21`: the TGI worked out at 32.1 µM.

For the molecule `CN(C(=O)c1ccc(F)cc1C(F)(F)F)C1CCN(c2nnc(-c3ccnn3C)c3ccccc23)CC1`, the GI50 is above 83.1 µM and the TGI is above 100 µM.

In the case of `O=C(C=P(c1ccccc1)(c1ccccc1)c1ccccc1)C12CC3CC(CC(C3)C1)C2`, the TGI is 29.9 µM.

As for `CN(C)CCNC(=O)c1ccc2ccc3cccnc3c2n1`, the TGI was 47.5 µM.

Turning to `COc1ccc(-c2cc3cccc(OC)c3c(=O)o2)cc1OC`, the GI50 was above 100 µM and the TGI was above 100 µM.

With `Cc1nc2sc(C(=O)Nc3cccc4ccccc34)c(N)c2cc1C(C)O` (configuration not stated), the GI50 was 1.21 µM and the TGI was above 50 µM.

Regarding `Cc1ccc(NS(=O)(=O)c2ccc(-c3cnc(C4CC4)o3)cc2)cc1`, the GI50 is 6.18 µM and the TGI worked out at 25 µM.

Take `COc1ccc(-c2nc(-c3nc4ccc(F)cc4[nH]3)cc3c2[nH]c2ccccc23)cc1`: the GI50 is 2.77 µM and the TGI worked out at 8.78 µM.

Take `OCC(O)COc1ccc(Br)cc1` (configuration not stated): the TGI was above 100 µM.

The molecule `Cc1ncc([N+](=O)[O-])n1CCN(C)CCCCn1ccnc1[N+](=O)[O-]` yielded a TGI above 100 µM.

Molecule `CSc1nc2c(c(N(C)C)n1)C=Nn1c(nc3ccccc31)S2` gave a TGI above 100 µM.

For the molecule `CC1=C/C(=C(\c2ccc(N(C)C)cc2)c2ccc([N+](C)(C)C)cc2)C=CC1=[N+](C)C`, the TGI came to 18.9 µM.

The molecule `O=C(O)CSc1n[nH]c(/C=C/c2ccccc2)n1` registered a TGI above 100 µM.

On to `O=C(/C=C/c1ccc(OCCCCCCCCCCOc2ccc(/C=C/C(=O)c3ccc(Cl)cc3)cc2)cc1)c1ccc(Cl)cc1`, for which the TGI was above 100 µM.

In turn, `O=C(CCSC(CC(=O)c1ccc(Cl)cc1)c1ccc(Cl)cc1)Nc1ccc(Cl)cc1` (configuration not stated) displayed a TGI of 22.7 µM.

As for `CSc1n[nH]c(N)c1C(=O)Nc1ccc(Cl)cc1`, the TGI was above 100 µM.

Molecule `COC(=O)OCC1OC(N2C(=O)NC(=O)C(I)C2N=[N+]=[N-])CC1OC(=O)OC` (configuration not stated) returned a TGI above 100 µM.

`CS(=O)(=O)C1S(=O)(=O)OCCOS1(=O)=O` came in with a TGI above 100 µM.

Regarding `COc1ccc2c(c1)C(=O)c1c-2c(NCCCN(C)C)nc2ccccc12`, the GI50 was 5.79 µM and the TGI was 19.3 µM.

Regarding `O=C(Cn1ccnc1[N+](=O)[O-])N(CCO)CCO`, the GI50 is above 1250 µM and the TGI is above 1250 µM.

In turn, `O=[N+]([O-])/C(C(Cl)=C(Cl)Cl)=C1\Nc2ccccc2O1` came in with a TGI above 100 µM.

As to `COc1c2cc(C(C)(C)C)cc1CSCc1cc(C(C)(C)C)cc(c1OC)CCCCC2`, the TGI is above 50 µM.

As for `CN(C)CC1CCC/C(=C\c2ccc(N(C)C)cc2)C1=O` (configuration not stated), the TGI is 31.7 µM.

`O=C(Cc1ccccc1)Oc1ccc2c(-c3ccccc3)c(C(=O)Nc3ccc(Cl)cc3)c(=O)oc2c1` had a TGI above 100 µM.

Molecule `COc1ccc(-n2sc3ncc(-c4ccccc4)cc3c2=O)cc1` registered a TGI above 100 µM.

Regarding `CCC(=O)Sc1ccccc1C(=O)Nc1ccc(Cl)cc1`, the GI50 was 18.1 µM and the TGI was 78.7 µM.

Turning to `COC[C@H]1C(=O)NCC(=O)N2NCCC[C@H]2C(=O)N(O)[C@H](C)C(=O)O[C@@H](C(C)C)[C@H](NC(=O)[C@](C)(O)[C@]2(O)CC[C@@H](CC(C)C)[C@H](C)O2)C(=O)N2NCCC[C@@H]2C(=O)N1O`, the GI50 was 0.0116 µM and the TGI is 0.0246 µM.

In the case of `c1ccc2c(c1)O[As](O[As]1Oc3ccccc3O1)O2`, the GI50 was 5.18 µM and the TGI came out at 19.9 µM.

Turning to `CC(=O)N[C@@H](Cc1ccc(O)cn1)C(=O)NCc1cccc(F)c1`, the TGI is above 100 µM.

Consider `O=C1OCC(c2ccc(O)c(O)c2)=C1c1cc(O)c(O)c(O)c1`, for which the GI50 is 29.2 µM and the TGI worked out at 84.6 µM.

With `COc1ccc(C2CC(c3cc4c(C)c(C(=O)c5ccccc5)oc4cc3O)=Nc3ccccc3S2)cc1OC` (configuration not stated), the TGI is above 100 µM.
